# Assay results as given in publication PMC4336329 (PLoS ONE, 2015).
# Hit rate of the full screen: of about 310,000 compounds, about 2,200 (0.71%) showed an effect of 50% or more. Effects have a minus sign here. Some of the results follow.
# Molecular target: human ether-à-go-go-related gene (hERG) potassium channel (human, UniProt Q12809)
# Assay: primary screen, population patch clamp on CHO cells stably expressing hERG
# Chain of human ether-à-go-go-related gene (hERG) potassium channel (Q12809 whole entry, looked up): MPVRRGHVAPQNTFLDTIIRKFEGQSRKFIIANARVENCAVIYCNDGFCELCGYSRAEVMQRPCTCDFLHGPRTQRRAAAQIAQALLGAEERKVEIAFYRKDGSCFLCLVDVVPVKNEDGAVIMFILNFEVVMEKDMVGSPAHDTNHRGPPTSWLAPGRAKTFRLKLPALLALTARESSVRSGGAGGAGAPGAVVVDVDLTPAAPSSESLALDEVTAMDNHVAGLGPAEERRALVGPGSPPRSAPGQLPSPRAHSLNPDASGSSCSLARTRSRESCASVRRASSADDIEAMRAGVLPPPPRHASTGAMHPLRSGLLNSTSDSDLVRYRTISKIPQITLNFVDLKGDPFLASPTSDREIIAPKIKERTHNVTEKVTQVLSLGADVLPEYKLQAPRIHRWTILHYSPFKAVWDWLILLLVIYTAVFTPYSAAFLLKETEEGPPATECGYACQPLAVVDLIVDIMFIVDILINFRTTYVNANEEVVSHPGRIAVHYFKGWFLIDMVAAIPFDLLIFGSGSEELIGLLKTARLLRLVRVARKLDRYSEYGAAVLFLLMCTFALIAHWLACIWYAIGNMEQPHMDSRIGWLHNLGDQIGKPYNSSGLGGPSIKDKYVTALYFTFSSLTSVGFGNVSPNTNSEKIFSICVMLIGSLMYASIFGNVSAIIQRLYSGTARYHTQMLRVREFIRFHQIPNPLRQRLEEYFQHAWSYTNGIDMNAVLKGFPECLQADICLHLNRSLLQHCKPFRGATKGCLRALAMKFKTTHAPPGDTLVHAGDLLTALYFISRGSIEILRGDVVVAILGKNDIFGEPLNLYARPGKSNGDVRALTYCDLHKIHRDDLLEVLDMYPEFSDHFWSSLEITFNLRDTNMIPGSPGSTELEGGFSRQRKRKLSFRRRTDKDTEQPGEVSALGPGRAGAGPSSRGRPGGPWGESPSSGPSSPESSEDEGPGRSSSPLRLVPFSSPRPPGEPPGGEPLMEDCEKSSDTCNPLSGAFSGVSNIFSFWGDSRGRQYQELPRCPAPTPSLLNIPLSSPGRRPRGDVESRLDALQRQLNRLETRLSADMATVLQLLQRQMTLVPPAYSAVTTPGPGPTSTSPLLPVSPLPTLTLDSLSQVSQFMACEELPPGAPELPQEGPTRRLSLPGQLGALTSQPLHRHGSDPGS
row,SMILES,"hERG current change (%, negative = inhibition) at 1uM [%]"
1,COc1ccccc1OCC(=O)NCC1CCCN(Cc2cnn(C(C)C)c2)C1 (centres unmarked),14.6
2,Cc1cc(C)nc(SCC(=O)NNC(=O)c2ccccc2C)n1,7.91
3,CSc1c(SCc2ccccc2)cnn(Cc2ccccc2)c1=O,0.464
4,Cn1nnnc1NCc1cccc(Cl)c1Cl,7.72
5,CN(C(=O)c1cnccn1)c1nnc(-c2cnccn2)s1,14.8
6,Cc1cccc(C)c1NC(=O)Cn1cc(C=O)c2ccccc21,14.3
7,O=S(=O)(NCC1CCCO1)c1cccc(C(F)(F)F)c1 (centres unmarked),3.89
8,Cc1cccc(C)c1NC(=O)CN1CCN(C(=O)CNC(=O)c2ccc(N3CCCC3=O)cc2)CC1,11.2
9,COc1cc(NC(=O)c2cccc(F)c2)cc(OC)c1OC,13.7
10,COc1ccc(Oc2cnc3ccccc3n2)cc1,13.7
11,CC[n+]1ccc(/C=C/c2c[nH]c3ccccc23)cc1.[Cl-],5.01
12,Cc1cccc(N2CCN(C(=O)c3ccc4nc[nH]c4c3)CC2)c1C,-1.36
13,CN1CCc2c(sc3nc(SCC(N)=O)n(-c4ccc(Cl)cc4)c(=O)c23)C1,8.97
14,COc1ccc(OC)c(-c2cc(C(=O)NCc3ccco3)no2)c1,0.616
15,Nc1ccc(-c2nc3ccc(N)cc3[nH]2)cc1,8.84
16,COc1ccccc1CNC(=O)CN(C)S(=O)(=O)c1ccc(Br)s1,4.61
17,O=C(N/N=C/c1cccc(OC(=O)c2cccc(Br)c2)c1)c1ccncc1,6.45
18,C=CCOc1c(CNn2nnnc2N)cccc1OC,6.29
19,NC(=S)N/N=C/c1cc([N+](=O)[O-])ccc1OCCOc1ccccc1,6.76

row,SMILES,"hERG current change (%, negative = inhibition) at 1uM [%]"
1,CC(=O)Nc1cccc(NC(=O)CSc2ncc(-c3ccc(Cl)cc3)n2Cc2ccco2)c1,2.89
2,O=C(CN1C(=O)COc2ccccc21)NCCCN1CCN(c2ccccc2F)CC1,6.87
3,C/C(CC(=O)NC(C)C)=N\NC(=O)C(c1ccccc1)c1ccccc1,1.17
4,CCN1C(=O)N/C(=C/c2cc(C)n(Cc3ccccc3)c2C)C1=O,8.98
5,CC1CC(C)CN(C(=O)C2CCN(S(=O)(=O)c3cccc4cccnc34)CC2)C1 (centres unmarked),12.5
6,O=C(Nc1cccnc1)c1cn(-c2ccccc2)nc1-c1cccs1,10.1
7,O=C(N/N=C/c1ccncc1)c1nc2ccccc2c(=O)[nH]1,11.9
8,COc1cc(OC)c2ccc(=O)oc2c1C(CC(=O)N1CCOCC1)c1ccc(N(C)C)cc1 (centres unmarked),21.8
9,COc1cccc2c1SCc1ccccc1C2CC(N)=O (centres unmarked),11.6
10,OC1=C(O)c2nc3ccccc3nc21,1.65
11,CCOc1ccc(CCNC(=O)CCc2nnc3ccc(N4CCOCC4)nn23)cc1OCC,7.73
12,O=C(CNC(=O)c1ccc(S(=O)(=O)N2CCCC2)cc1)N/N=C/c1ccc(Cl)cc1Cl,3.52
13,Cc1ccc2c(c1)cc(CN(Cc1cccs1)C(=O)c1ccco1)c1nnnn12,1.11
14,COc1ccc(-c2cc(C(F)(F)F)nc(N3CCOCC3)n2)cc1OC,9.61
15,CCN1CCN(Cc2ccc(NC(=O)Nc3ccc(OC)cc3)cc2)CC1,0.627
16,O=C(O)CC/C(=N\NC(=O)c1ccccc1)c1cccs1,6.25
17,O=C(Nc1cc(C(F)(F)F)ccc1N1CCOCC1)c1cncc(Br)c1,-10.2
18,CCOc1ccccc1N1CCN(C(=O)C(Sc2ccccc2)c2ccccc2)CC1 (centres unmarked),11.5
19,Cc1cc(NC(=O)CCC(=O)N(CC(=O)NCC2CCCO2)c2ccc(C)c(C)c2)no1 (centres unmarked),8.07

row,SMILES,"hERG current change (%, negative = inhibition) at 1uM [%]"
1,CCC(Sc1nc2cc(OC)c(OC)cc2c(=O)n1Cc1ccco1)C(=O)NCCOC (centres unmarked),-4.36
2,O=C(Nc1ccc(Cl)cc1)N1CCSc2ccccc21,-0.071
3,COc1ccc(-n2c(CCc3ccccc3)nnc2SCC(=O)c2ccccc2)cc1,1.06
4,COc1ccc(CC(=O)Nc2ccc(-c3noc(-c4cc(OC)c(OC)c(OC)c4)n3)cc2)cc1,3.62
5,Cc1cc(C)[n+](-c2ccc(F)cc2)c2[nH]c(=O)[nH]c(=O)c12.[I-],5.63
6,COc1cccc(/C=N/NC(=O)C(=O)NCc2cccnc2)c1OC,14.3
7,O=C(OCc1ccccc1)c1cc(S(=O)(=O)N2CCCCC2)ccc1N1CCOCC1,-3.08
8,CS(=O)(=O)Nc1ccc(C2=NN(C(=O)c3ccco3)C(c3ccc(F)cc3)C2)cc1 (centres unmarked),-44.7
9,CC(=O)Nc1ccc(NC(=O)c2c(C)nn(Cc3ccccc3Cl)c2C)cc1,-0.476
10,COc1ccc(Cc2nnc(SCC(=O)NC3CCCC3)o2)cc1,5.22
11,O=C(Nc1nc2ccc([N+](=O)[O-])cc2s1)C1CCCO1 (centres unmarked),4.84
12,CC(C)(C)C1CCC(C(=O)OCC(=O)N2CCN(C(=O)c3ccco3)CC2)CC1 (centres unmarked),3.14
13,COc1ccc(OC)c(-n2c(-c3ccc(C)cc3)n[nH]c2=S)c1,0.571
14,O=C(CSC1=Nc2ccccc2C2=NC(CC(=O)NCc3ccco3)C(=O)N12)NCC1CCCO1 (centres unmarked),6.38
15,CCOC(=O)c1c(N)sn(-c2ccccc2)c1=S,7.27
16,Cn1c(=O)c2sccc2n(Cc2ccccc2)c1=O,5.69
17,COc1ccc(Cl)c(N2CCN(CCCNC(=O)Nc3ccc(C)cc3)CC2)c1,-24.5
18,CC(=O)Nc1cc(-c2nc3ccccc3o2)ccc1Cl,8.99
